The text below walks through data of publication PMC4336329 (PLoS ONE, 2015).

Molecules are shown by their SMILES. Screen size: about 310,000 compounds; about 14,000 (4.5%) showed an effect of 50% or more. The effect is printed as a negative number. The list shows a part of the results.
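Note: peak tail current of the secondary pulse compared with the same well before compound.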

The target of the experiment is human ether-à-go-go-related gene (hERG) potassium channel (human, UniProt Q12809). Kind of experiment: primary screen, population patch clamp on CHO cells stably expressing hERG.
Sequence of human ether-à-go-go-related gene (hERG) potassium channel (Q12809 whole entry, looked up): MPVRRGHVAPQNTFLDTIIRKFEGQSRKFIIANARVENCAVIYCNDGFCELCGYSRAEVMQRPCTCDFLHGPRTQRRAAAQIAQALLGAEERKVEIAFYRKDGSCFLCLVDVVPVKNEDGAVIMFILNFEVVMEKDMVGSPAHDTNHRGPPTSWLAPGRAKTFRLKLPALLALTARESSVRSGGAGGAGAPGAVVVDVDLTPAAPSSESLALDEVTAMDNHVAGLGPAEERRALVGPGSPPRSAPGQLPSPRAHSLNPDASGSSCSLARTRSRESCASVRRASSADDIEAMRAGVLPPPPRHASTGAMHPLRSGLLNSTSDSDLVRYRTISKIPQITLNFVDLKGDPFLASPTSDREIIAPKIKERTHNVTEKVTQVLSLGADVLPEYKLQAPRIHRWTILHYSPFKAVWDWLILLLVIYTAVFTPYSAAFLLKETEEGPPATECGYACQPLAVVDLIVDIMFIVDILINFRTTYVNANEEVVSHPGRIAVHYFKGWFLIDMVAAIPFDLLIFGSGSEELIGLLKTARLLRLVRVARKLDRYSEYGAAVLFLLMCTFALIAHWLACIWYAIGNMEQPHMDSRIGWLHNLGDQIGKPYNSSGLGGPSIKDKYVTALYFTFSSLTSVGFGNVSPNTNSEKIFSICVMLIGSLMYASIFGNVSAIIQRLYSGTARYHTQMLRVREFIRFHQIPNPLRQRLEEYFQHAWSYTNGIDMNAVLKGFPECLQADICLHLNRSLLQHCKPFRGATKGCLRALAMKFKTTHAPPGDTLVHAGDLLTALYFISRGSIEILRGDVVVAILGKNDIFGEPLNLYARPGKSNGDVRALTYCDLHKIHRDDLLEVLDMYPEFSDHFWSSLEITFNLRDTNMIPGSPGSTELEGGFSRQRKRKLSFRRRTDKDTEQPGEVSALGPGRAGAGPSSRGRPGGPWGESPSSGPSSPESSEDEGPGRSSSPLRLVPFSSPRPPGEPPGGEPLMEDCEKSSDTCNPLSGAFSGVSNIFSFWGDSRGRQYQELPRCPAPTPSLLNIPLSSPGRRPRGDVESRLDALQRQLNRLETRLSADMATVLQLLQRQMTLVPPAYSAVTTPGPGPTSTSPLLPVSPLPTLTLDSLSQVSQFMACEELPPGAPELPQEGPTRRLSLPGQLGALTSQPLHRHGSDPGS
As to `N#Cc1cnn(-c2ncnc3sc4c(c23)CCCC4)c1N`, the “hERG current change (%, negative = inhibition) at 10uM” value is on record as -17.4%. For `CCCCn1c(N)c(-c2nc3ccccc3o2)c2c([N+](=O)[O-])nn(C)c(=O)c21` the value was 8.09%.

In the case of `CCN(CC)CC(O)c1ccc(C2CCCC2)cc1.Cl` (stereo not shown), the “hERG current change (%, negative = inhibition) at 10uM” value is -63%. For `COc1cccc(C2CC(c3ccc(Cl)cc3Cl)Nc3nc(N)nn32)c1` (stereo not shown) the value was -21.7%. The result for `O=C(CSc1ccc(F)cc1)N1CCOCC1` reads 16.2%.

Consider `O=C(c1ccc(C(F)(F)F)cc1)C1CCCN(C(=O)CN2C(=O)CSC2=O)C1` (stereo not shown), for which the “hERG current change (%, negative = inhibition) at 10uM” value was found to be 26.7%. With `O=c1cc(-c2cccc([N+](=O)[O-])c2)[nH][nH]1`, the “hERG current change (%, negative = inhibition) at 10uM” value came to 18%. Turning to `O=C(CC(O)(C(F)(F)F)C(F)(F)F)Nc1ccc(Cl)c(Cl)c1`, the “hERG current change (%, negative = inhibition) at 10uM” value is recorded as -20.7%. The result for `Cc1cccc2c1c(N=NC(N)=S)c(O)n2C1OC(CO)C(O)C(O)C1O` (stereo not shown) reads 12.2%; that for `Cc1cc(C)c2c(-n3cccc3)c(NC(=O)OC(C)C)sc2n1`, 8.67%; that for `O=C(c1cccnc1)C1CCCN(Cc2nc(Cc3ccccc3F)no2)C1` (stereo not shown), -15.3%. Regarding `Cc1ccc2nc(CSc3nnc(Cc4cccs4)n3C3CCCCC3)cc(=O)n2c1`, the “hERG current change (%, negative = inhibition) at 10uM” value was -15.6%. For `CCc1ccc(NC(=O)N2CCC(c3ccccc3)C2)cc1` (stereo not shown) the value was -0.867%; for `CCOC(=O)C1(Cc2ccccc2)CCN(C2Cc3ccccc3C2)CC1`, -66.4%; for `O=C(COC(=O)/C=C/c1cccc(C(F)(F)F)c1)NC1CCS(=O)(=O)C1` (stereo not shown), -18%.

With `COc1ccccc1NS(=O)(=O)c1ccc(C(=O)N2CCCCCCC2)cc1`, the “hERG current change (%, negative = inhibition) at 10uM” value was -26.4%. For `CCCCC(=O)N/N=C(/C)C1=C(C)C(C)(C)OC1=O` the value was 22%. On to `CCC(=O)N=c1sc2c(OC)ccc(OC)c2n1C`, for which the “hERG current change (%, negative = inhibition) at 10uM” value came out at 11%. For `O=C(/C=C\c1cccs1)c1c(O)ccc2ccc(=O)oc12` the value was -0.288%; for `COc1cccc(CN2CCNC(=O)C2CC(=O)O)c1OC` (stereo not shown), 11.4%. In the case of `CC1(C)Cc2c(C#N)c(OCC(=O)c3ccc(Cl)cc3)nc(-c3ccco3)c2CO1`, the “hERG current change (%, negative = inhibition) at 10uM” value is recorded as 10%.

Take `O=C1c2ccccc2C2(c3ccc(Cl)cc3)NCCN12` (stereo not shown): the “hERG current change (%, negative = inhibition) at 10uM” value was determined as 11.7%. For `CC(C)(C)NC(=O)[C@]1(C)CCC[C@@]2(C)C3CC[C@@]4(C)C[C@]3(CCC21)CC4=O` (stereo partly shown) the value was -8.58%. Regarding `Cc1ccnc(N2CCCC(C(=O)Nc3cccc(C)c3C)C2)n1` (stereo not shown), the “hERG current change (%, negative = inhibition) at 10uM” value came to 9.42%. For `Cc1nc2c(C(=O)Nc3ccc(N4CCCC(O)C4)cc3)snc2c(=O)[nH]1` (stereo not shown) the value was -4.37%.
